Results on 83 molecules are retold here after ChEMBL document CHEMBL4888484, “Replenishing the malaria drug discovery pipeline: Screening and hit evaluation of the MMV Hit Generation Library 1 (HGL1) against asexual blood stage Plasmodium falciparum ,using a nano luciferase reporter read-out” (2022).

Structures are written as SMILES. Hit rate of the full screen: of about 150,000 compounds, about 540 (0.36%) showed an effect of 50% or more. This is one part of the list.

The assay relates to Plasmodium falciparum. Description: Primary screen in NF54 nanoGlo assay, in single point, at 2uM, 72h; a lower Z score goes with more inhibition. The class given is functional, Erythrocyte. The conditions noted are these: timepoint 72 hour.
For the molecule `CC1CC(C)CN(S(=O)(=O)c2ccc3c(c2)N(CC(=O)N2CCOCC2)C(=O)CO3)C1` (stereo unspecified), the “% Inhibition” value is -1% and the Z score was 0.11.
In the same order, the values of `CCc1ccc(CNC(=O)c2snc(-c3ccncc3)c2N)cc1` are -12% and 1.17.
For `Cc1ccc(NC(=O)Cn2cnc(-c3noc(-c4cccnc4)n3)c2)cc1C` the same measures were -5% and 0.64.
For `CC(C)N(C[C@H]1CCC(=O)N1)C(=O)c1cccc(-c2cn[nH]c2)c1` the same measures were -9% and 1.14.
As to `Cc1nn(-c2nncc(-c3ccc(F)cc3)n2)c2c1[C@@H](c1cccc(Cl)c1)CC(=O)N2`, the “% Inhibition” value is 11% and the Z score is listed as -2.1.
In the same order, the values of `O=S(=O)(c1c(F)cccc1Cl)N1CCC(n2ccnn2)CC1` are -7% and 0.72.
For `CCCCCc1nc(CN2CCOCC2)n(-c2ccc(C(=O)O)cc2)n1` the same measures were -6% and 1.13.
In the same order, the values of `Cc1nc(CNc2ccc(S(=O)(=O)CCO)cc2)cs1` are -22% and 4.06.
As for `CCN(CC)c1nc(NCc2ccc(Cl)cc2)c2cnn(C)c2n1`, the “% Inhibition” value is on record as 12% and the Z score was -2.31.
In the same order, the values of `O=C(N[C@@H](C(=O)O)c1ccc(F)cc1F)c1cn(-c2ccc(Br)cc2)cn1` are -21% and 2.11.
For the molecule `COc1ccc(C(=O)C2CCN(S(=O)(=O)CCC(C)(C)C)CC2)cc1`, the “% Inhibition” value is -15% and the Z score is listed as 2.32.
In the same order, the values of `COc1ccc(CNc2c(CO)cnc3c2cnn3C)cc1` are -2% and 0.24.
For `CC(=O)NC[C@@H]1CN(C(=O)Cc2c[nH]c3cc(C)ccc23)C[C@H]1c1cncn1C` the same measures were -13% and 2.11.
As for `N#Cc1ccnc(NCCN2CCCOCC2)c1`, the “% Inhibition” value is -15% and the Z score stood at 3.05.
For `CN(CC(=O)Nc1cc(C2CCCC2)nn1-c1ccccc1)Cc1ccco1` the same measures were -6% and 0.65.
In the same order, the values of `Cc1cc(C[C@H](C)Nc2ccc(C(F)(F)F)cn2)n[nH]1` are 5% and -0.65.
For `Cc1ccc(CN2CCC(N(C(=O)NCCc3ccccc3)C3CCOCC3)CC2)cc1C` the same measures were 3% and -0.43.
Turning to `O=c1ccc(-c2ccc3c(c2)OCO3)nn1Cc1cccc2ccccc12`, the “% Inhibition” value is reported as 2% and the Z score was -0.43.
Regarding `CCS(=O)(=O)N1CCC[C@H](Cn2c(C)cnc2C2CC2)C1`, the “% Inhibition” value was -14% and the Z score is listed as 1.78.
As for `O=C(C1=CCCC1)N1CCn2c(nnc2C(F)(F)F)C1`, the “% Inhibition” value is listed as -9% and the Z score is 1.15.
For `O=C(Nc1ccncc1NC(=O)c1ccccc1)c1ccccc1` the same measures were 4% and -0.58.
In the case of `CN1CC[C@H](NS(=O)(=O)CCC(C)(C)C(F)(F)F)CC1=O`, the “% Inhibition” value is recorded as -7% and the Z score came out at 1.2.
For `FC(F)(F)c1ccc2sc(NCCN3CCOCC3)nc2c1` the same measures were -3% and 0.32.
Take `O=C1CCCc2cc(C(=O)Nc3ccn(CC(=O)N4CCOCC4)n3)ccc2N1`: the “% Inhibition” value is 9% and the Z score is listed as -1.11.
Regarding `Cc1ccccc1Cn1cnc2c1c(=O)n(CC1CC1)c(=O)n2-c1cccc(Cl)c1`, the “% Inhibition” value worked out at 10% and the Z score is listed as -1.21.
As to `CS(=O)(=O)N1CC[C@H](C2CCN(c3ncccn3)CC2)C1`, the “% Inhibition” value is -14% and the Z score is listed as 1.33.
In the same order, the values of `Cc1cccc(NC(=O)C2CCCN(CN3C(=O)NC(c4ccccc4)(C(F)(F)F)C3=O)C2)n1` (stereo unspecified) are -30% and 3.58.
In the same order, the values of `CC(=O)NCC[C@H]1Cn2cccc2C1=O` are -5% and 0.61.
As for `Cc1ccccc1[C@H]1CCCN(C(=O)Cc2cccnc2)C1`, the “% Inhibition” value worked out at 13% and the Z score is -1.7.
In the same order, the values of `Cc1n[nH]c(C)c1CC(=O)N[C@@H](Cc1ccccc1)C(N)=O` are -9% and 1.41.
For `Cc1ccc2cc1Oc1cccc(c1)CO[C@H]1CN(C(=O)CCN3CCCC3=O)C[C@@H]1NC(=O)CN(C)C2=O` the same measures were -16% and 2.97.
In the same order, the values of `Cc1c[nH]c([C@H](C)NS(=O)(=O)c2ccc(-c3onc(C)c3C)o2)n1` are 0% and -0.03.
In the case of `CC(=O)N1CCC(C(=O)Nc2ccc(N3CCCCC3)cc2)CC1`, the “% Inhibition” value is on record as 18% and the Z score is reported as -2.08.
Consider `Cc1ncsc1C(=O)NCC1CCN(C(=O)C(=O)c2cccn2C)CC1`, for which the “% Inhibition” value is -26% and the Z score is on record as 2.39.
For `O=C([C@@H]1COc2ccccc2O1)N1CCC(O)(CO)CC1` the same measures were -17% and 2.21.
In the same order, the values of `O=C(c1nc(N2CCOCC2)ncc1Cl)N1CCc2ccccc21` are 12% and -2.24.
For `O=C1Nc2cc(C(=O)N3CCN(c4ccc(F)cc4)CC3)ccc2N2CCCC[C@@H]12` the same measures were -2% and 0.35.
As for `CC(C)N(C(=O)[C@@H]1CCOc2ccc(Cl)cc21)C1CCOCC1`, the “% Inhibition” value is reported as 29% and the Z score is listed as -3.91.
For the molecule `O=C(c1ccncc1)N1CCC2(CC1)c1nc[nH]c1CCN2C(=O)C1CCC1`, the “% Inhibition” value is 1% and the Z score was -0.16.
For `CC1CN(c2cc(N3CCC(C)(O)CC3)ncn2)CC(C2CC2)O1` (stereo unspecified) the same measures were 8% and -0.99.
In the same order, the values of `COCCN1CC(=O)N[C@H]2CN(Cc3cncn3C)C[C@@H]2OCc2cccc(c2)Oc2cncc(c2)C1=O` are -20% and 2.57.
In the same order, the values of `O=C(NC1(c2ccc(F)c(F)c2)CC1)C(F)F` are -6% and 1.03.
As to `O=C(Nc1ccc(C(F)(F)F)cc1)[C@@H]1CCN(c2ccc(Cl)cc2Cl)C1=O`, the “% Inhibition” value is 0% and the Z score amounted to 0.06.
In the same order, the values of `O=C(NCCN1CCN(c2ccccc2F)CC1)c1ccc(N2CCOc3ccc(Cl)cc32)s1` are -9% and 1.16.
`O=C(CCCc1cn[nH]c1)NC[C@@H]1COc2ccccc2C1`: the “% Inhibition” value was -13% and the Z score came to 1.86.
For `NC(=O)[C@H]1CCN(c2ncc(Br)c3ccc(F)cc23)C1` the same measures were -4% and 0.34.
For `Nc1cc(C(=O)NC[C@H]2CCN(C/C=C/c3ccccc3)C2)ccn1` the same measures were -13% and 1.75.
`Cc1nc2cc(-c3cccc4ccnn34)ccc2s1`: the “% Inhibition” value is -21% and the Z score amounted to 2.11.
Regarding `Cc1cc(C)c(NCc2ccsc2)c(C)c1`, the “% Inhibition” value is reported as -6% and the Z score is 0.92.
In the same order, the values of `Cn1cc(Cl)cc1C(=O)N1CC(NC(=O)OCc2ccccc2)C1` are -10% and 1.28.
As for `Cc1c[nH]c(CN(C)Cc2cc(C(C)C)on2)c(C)c1=O`, the “% Inhibition” value is 2% and the Z score is given as -0.35.
For `C[C@@H](CN(C)Cc1ccccc1)NC(=O)C1=COCCC1` the same measures were -5% and 0.42.
On to `CCN1CCCN(C(=O)N[C@H]2CCN(CC(F)F)C2)CC1=O`, for which the “% Inhibition” value is 11% and the Z score is on record as -1.46.
In the same order, the values of `CC(C)c1n[nH]c([C@@H]2CN(Cc3nc4c(F)cccc4[nH]3)CCO2)n1` are -12% and 1.8.
For `Cn1c(CN2CCCCC2)nnc1C1CCN(c2cnccn2)CC1` the same measures were -6% and 0.8.
For `CCC1Oc2ccc(NC(=O)c3ccc(Cl)c(Cl)c3)cc2CN(C(C)CC)C1=O` (stereo unspecified) the same measures were 1% and -0.07.
`COc1ccccc1S(=O)(=O)N1CC(=O)C1`: the “% Inhibition” value is given as -15% and the Z score is recorded as 3.07.
`CCCC[C@H](CC)C(=O)N1CCN(c2nc(CN3CCN(c4ccc(C)cc4)CC3)cc(=O)[nH]2)CC1`: the “% Inhibition” value is -12% and the Z score came to 1.4.
In the same order, the values of `O=C(NC1CCCC(C2CC2)C1)N1CCC2(CCOC2)C1` (stereo unspecified) are -1% and 0.17.
In the case of `CC(C)[C@H]1CN(C)CCN1C(=O)c1cc(CN2CCC(O)CC2)on1`, the “% Inhibition” value was -11% and the Z score is recorded as 1.02.
In the same order, the values of `CCOc1ccc(NC(=O)Cn2nc(-c3ccco3)c3sc(N4CCCCC4)nc3c2=O)cc1` are 4% and -0.63.
In the same order, the values of `O=C(NC1CCCCCCC1)c1cccc(-c2cnn3cccnc23)c1` are -6% and 0.86.
In the same order, the values of `CC[C@H](OC)C(=O)N1CCN(Cc2cc(C)cc(C)c2)C(=O)C1` are -7% and 1.34.
With `C[C@H]1CCc2nc3ncn(Cc4ccc(F)cc4Cl)c(=O)c3cc2C1`, the “% Inhibition” value is listed as -20% and the Z score was found to be 1.87.
On to `CCN1CCN(Cc2cc3cc4c(cc3nc2-c2ccc(Cl)cc2)OCO4)CC1`, for which the “% Inhibition” value was -10% and the Z score is 1.95.
Regarding `CN(CC1CCCN2CCCCC12)C(=O)CCC1N=C(O)N(Cc2ccc3c(c2)OCO3)C1=O` (stereo unspecified), the “% Inhibition” value is listed as -18% and the Z score is listed as 2.34.
In the same order, the values of `O=C(C1CCc2cn[nH]c2C1)N1CCOC(C2CCCCC2)C1` (stereo unspecified) are -9% and 1.47.
For `CCCn1cc(C(=O)N2CCNC[C@](C)(F)C2)cn1` the same measures were 0% and 0.
For the molecule `COC(=O)c1ccc2c(c1)CCCCN2Cc1ncnn1C`, the “% Inhibition” value came to 0% and the Z score is on record as -0.07.
For `c1ccc2cc(Nc3ccc(Nc4ccc5ccccc5c4)cc3)ccc2c1` the same measures were 27% and -3.54.
For `CCS(=O)(=O)NC[C@H]1CCN(Cc2ccco2)C1` the same measures were -11% and 2.05.
Turning to `Cn1nnc(Cn2cccc(C(F)(F)F)c2=O)n1`, the “% Inhibition” value is -15% and the Z score was 1.52.
For `COc1cccc([C@H]2CN(C(=O)c3cc(C)oc3C)C[C@@H]2C(=O)O)c1OC` the same measures were -5% and 0.62.
As to `C[C@H](O)c1onc(-c2ccccc2)c1C(=O)N1CCCCCC1`, the “% Inhibition” value turned out to be 2% and the Z score is -0.33.
For `COc1ccccc1-c1ccc2oc([C@@H]3CCCN3C(=O)c3cccc(Cl)c3)nc2c1` the same measures were -14% and 1.9.
On to `CN1CC2(CCN(C(=O)C3CCCCC3)CC2)C[C@@H]1CN1CCOCC1`, for which the “% Inhibition” value was -14% and the Z score was found to be 2.72.
For `CCn1c(-c2cccnc2)nc2cc(NC(=O)COC)cc(C(=O)NCc3ccc(F)cc3)c21` the same measures were -18% and 3.24.
For the molecule `Cc1nc(C(=O)Nc2nc(CC(C)(C)C)cs2)c[nH]1`, the “% Inhibition” value was -1% and the Z score is 0.2.
In the same order, the values of `Cc1nc(C)c(S(=O)(=O)N2CCC[C@H](c3cn[nH]c3)C2)s1` are -12% and 2.35.
For `COc1c(C)cnc(Cn2cnc(N)n2)c1C` the same measures were 8% and -0.99.
For `Cc1cnc(C(C)(C)NCC(=O)Nc2cccc(C(=O)NC3CC3)c2)s1` the same measures were -7% and 0.72.
With `CCC1CCC(NCCCn2ccnc2)CC1` (stereo unspecified), the “% Inhibition” value was -3% and the Z score turned out to be 0.5.
As to `COCCc1nc(CCCn2cccn2)n([C@H]2CCS(=O)(=O)C2)n1`, the “% Inhibition” value is on record as -6% and the Z score is on record as 0.87.
